# Reference: the supplement of paper PMC3334620
# In all, about 33,000 sequences were measured (“E-score (-0.5 to 0.5)”: median about -0.053, highest 2% from about 0.37 on). Some of the results follow.
# Biological target: Hap1 (UniProt P0CE41)
# Experiment: PBM E-score (8-mer binding enrichment) (E-score (-0.5 to 0.5)); higher = stronger / more preferred TF binding; most listed sequences are background and not binding sites
# Conditions: protein concentration: 200 nM; construct: GST-DNA-binding domain
# In short: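 Each ungapped eight-base word and its reverse complement, pooled, received an E-score from the Universal PBM Analysis Suite. Underlying scans, normalised with masliner, recorded fluorescent anti-GST bound to GST-tagged yeast transcription factors. These were applied at about 100-200 nM to universal all-10-mer Agilent arrays double-stranded by primer extension.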
# Chain of UniProt P0CE41 (P0CE41 whole entry): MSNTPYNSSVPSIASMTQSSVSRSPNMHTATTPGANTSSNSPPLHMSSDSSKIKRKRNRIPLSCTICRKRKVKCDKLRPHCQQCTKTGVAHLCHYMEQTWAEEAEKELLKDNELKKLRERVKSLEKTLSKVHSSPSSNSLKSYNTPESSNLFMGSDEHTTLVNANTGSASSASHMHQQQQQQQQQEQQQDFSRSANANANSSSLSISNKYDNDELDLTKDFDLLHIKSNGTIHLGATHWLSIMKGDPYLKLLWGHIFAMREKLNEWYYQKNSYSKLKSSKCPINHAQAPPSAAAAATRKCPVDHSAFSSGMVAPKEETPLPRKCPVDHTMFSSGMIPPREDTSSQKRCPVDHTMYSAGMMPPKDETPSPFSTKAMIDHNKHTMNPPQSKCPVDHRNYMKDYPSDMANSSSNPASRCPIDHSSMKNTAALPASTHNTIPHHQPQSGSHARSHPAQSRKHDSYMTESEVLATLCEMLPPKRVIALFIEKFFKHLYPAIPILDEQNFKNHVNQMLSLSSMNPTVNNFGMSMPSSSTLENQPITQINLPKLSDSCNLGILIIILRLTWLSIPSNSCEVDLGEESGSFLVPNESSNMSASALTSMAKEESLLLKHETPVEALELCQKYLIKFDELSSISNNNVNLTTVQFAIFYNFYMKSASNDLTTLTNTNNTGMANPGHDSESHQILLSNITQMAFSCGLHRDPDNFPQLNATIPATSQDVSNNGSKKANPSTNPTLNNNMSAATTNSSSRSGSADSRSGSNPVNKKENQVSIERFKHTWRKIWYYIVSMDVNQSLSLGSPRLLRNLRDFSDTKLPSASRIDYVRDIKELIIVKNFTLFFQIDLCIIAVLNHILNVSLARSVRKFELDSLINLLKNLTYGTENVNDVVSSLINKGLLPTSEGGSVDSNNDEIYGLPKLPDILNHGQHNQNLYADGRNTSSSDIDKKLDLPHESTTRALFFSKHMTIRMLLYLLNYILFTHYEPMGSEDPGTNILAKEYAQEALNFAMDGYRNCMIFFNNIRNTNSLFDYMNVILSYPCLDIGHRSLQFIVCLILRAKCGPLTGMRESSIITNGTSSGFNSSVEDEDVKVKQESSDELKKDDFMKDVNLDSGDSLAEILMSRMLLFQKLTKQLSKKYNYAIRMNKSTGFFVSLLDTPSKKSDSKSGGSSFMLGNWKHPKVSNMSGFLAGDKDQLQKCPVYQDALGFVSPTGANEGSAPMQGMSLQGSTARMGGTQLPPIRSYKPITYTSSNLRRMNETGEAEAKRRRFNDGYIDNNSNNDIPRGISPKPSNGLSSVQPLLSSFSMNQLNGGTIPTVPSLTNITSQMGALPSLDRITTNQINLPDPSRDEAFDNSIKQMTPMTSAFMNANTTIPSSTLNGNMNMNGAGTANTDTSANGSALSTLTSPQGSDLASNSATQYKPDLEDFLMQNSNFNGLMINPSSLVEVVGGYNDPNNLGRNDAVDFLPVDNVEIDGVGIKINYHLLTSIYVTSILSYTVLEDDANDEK
row,Sequence,PBM E-score
1,ATGGATTC,-0.0542
2,ACCCCTGA,-0.0894
3,AAGGTCAT,-0.106
4,CGGTGCCC,0.119
5,AATTGAGT,0.0215
6,AAAAAAGT,-0.11
7,CTGTAACA,-0.409
8,GGATGACA,0.11
9,ATCCAAGG,0.00753
10,ACAGTCGG,0.21
11,CTTAGTTA,-0.0967
12,TAACACGA,-0.00421
13,AGTCCTAA,-0.207
14,TGGACTAA,-0.117
15,ACACACGT,-0.263
16,AGCAAAAA,-0.0538
17,CTGGGACC,-0.161
18,CCGCGATC,0.185
19,CATTCCAC,0.0599
20,CTGCTCAA,-0.292
21,AACCATAG,-0.106
22,ACTGTGAC,-0.15
23,GGCAAGCA,-0.124
24,AACTCCAG,-0.0226
25,GGCTTAGA,-0.181

row,Sequence,PBM E-score
1,AGTTGGCA,-0.124
2,ACTTCACT,-0.0435
3,ATTTAAAG,0.218
4,AATAAGGA,-0.119
5,GCAATGAA,-0.0319
6,GTGATAGA,-0.212
7,GCGGAAGC,0.0587
8,GCACGTCC,0.046
9,ATCCTCGC,0.107
10,CGCGCGCA,0.238
11,TGTTCTAA,-0.11
12,AACGGGAC,0.0881
13,CACCCCGA,0.229
14,CGTACGGA,0.227
15,ACTATACC,0.0871
16,GTTGACCA,-0.0947
17,AAGTTACT,-0.0147
18,CCTAGAGG,-0.292
19,ATAAGCAG,-0.0967
20,ACCCGGGC,0.368
21,CATGCGTC,-0.0877
22,ATATCTCG,0.0854
23,AGCCGAGC,0.324
24,GAGCGAAC,-0.0203
25,GAGCGTCA,-0.0372

row,Sequence,PBM E-score
1,CGGTATGA,0.187
2,TCAATACA,-0.207
3,AAGAGTCA,-0.235
4,AATGAAAG,-0.179
5,AGCGAGTG,-0.0216
6,GTGTGCTA,-0.0704
7,ATAACACC,0.292
8,AGTCGACG,0.0145
9,ATTAACTC,0.159
10,GCCGTGAA,0.0472
11,TGGCGCAA,-0.139
12,AGAGCACC,-0.105
13,GGTGTCTA,-0.145
14,AGGGTAGC,-0.162
15,AGATTAAG,-0.0246
16,GGGTGAAA,0.103
17,CTACTCGA,-0.0581
18,TCACCGAA,0.235
19,AATTAGCA,0.0728
20,ACGTGATA,-0.278
21,AAAAAAGA,-0.122
22,AGACAGCA,-0.0022
23,CATACTCG,0.138
24,ACCGAAAG,0.222
25,AAGTGTTA,0.0418

row,Sequence,PBM E-score
1,TACTACAA,-0.0389
2,AGCGGACA,0.326
3,ACATAAAC,-0.11
4,AATAAACC,0.142
5,TCGCCAGA,-0.147
6,ATTAACGC,0.137
7,AATATAAC,0.149
8,AAATGGTT,-0.106
9,CGCCCGAC,0.366
10,CAGTCCAA,-0.299
11,ACACGAGA,-0.19
12,ATGGGCCA,-0.0182
13,CTAGTACC,-0.0321
14,GTAGGATA,-0.126
15,ACGAGAAG,-0.227
16,AATCCACG,0.0107
17,ATGAAGTC,0.00068
18,TAAGCATA,-0.129
19,ATGATGCG,-0.0722
20,CCCGAGTC,0.278
21,CCGCGCCG,0.308
22,CAACGTGA,-0.156
23,AATCCTTC,-0.0508
24,CACACCAC,-0.133
25,TACGTTCA,-0.193

row,Sequence,PBM E-score
1,GTTTGTTA,-0.0176
2,AAACTGCG,0.0326
3,ATGCGCGG,0.232
4,ATTGATCG,0.0513
5,ATGGCAGA,0.089
6,TCACAGGA,-0.221
7,CCATCTTC,-0.102
8,TACATATA,-0.0132
9,AGACTAGA,-0.181
10,TGTTGTAA,-0.00737
11,GGTCCGAA,0.434
12,ACACCAAC,-0.18
13,GCGGAACC,0.245
14,ACGCTACA,-0.264
15,ATAACTTG,-0.2
16,TCCGTCAA,0.237
17,ATTTACAA,-0.218
18,AATTTCAG,-0.255
19,AATAACCG,0.315
20,CCTTGCCC,0.0105
21,AGCCAAGG,-0.147
22,AAAACTTA,-0.0742
23,CTAGTCGC,-0.209
24,CAGGAACA,-0.251
25,CTAGACAA,-0.107

row,Sequence,PBM E-score
1,AGGGGGGC,-0.0922
2,GACGTGAA,-0.155
3,AACTAGCC,-0.181
4,GAAGCGGC,0.016
5,ACAGCAAG,-0.14
6,ACGGCCCC,-0.118
7,AACCCCTC,-0.14
8,CCGTAGAC,0.22
9,ACCTTCCT,-0.317
10,CAATAACG,0.164
11,CCAAGTGG,-0.158
12,GTATTGCA,-0.0995
13,TATATTCA,0.0244
14,TCTGTGAA,-0.101
15,CCCGATAA,0.417
16,CAGTTATA,0.109
17,TAGTACCA,-0.0738
18,CGCTCGGA,0.404
19,ATCCAAAC,-0.125
20,CGGCGCGC,0.311
21,AACCAGCC,0.0595
22,AGATTCAC,-0.0849
23,CATCAGCG,-0.0312
24,CAAAAAAA,0.0437
25,TATATGGA,-0.174

row,Sequence,PBM E-score
1,TACGCTAA,-0.0737
2,ACGTGTTC,-0.0465
3,AGTTCCAC,-0.051
4,CGTCCGTA,0.309
5,ACCTAGAT,-0.146
6,CTTGTCCA,-0.206
7,CAACAATC,-0.186
8,TAGGCCGA,0.287
9,CTTATTTA,-0.103
10,CGAGTGGA,0.107
11,CTGTTTTA,-0.0302
12,CAACATGC,-0.119
13,AAAAGGTC,-0.169
14,CCAATACC,0.158
15,GCACCGGA,0.353
16,CACGTACG,-0.0664
17,TGAGAGAA,-0.276
18,AGACGGTC,-0.0927
19,CCCTCTAA,-0.177
20,CAACTCGC,-0.119
21,GTCACAGA,-0.256
22,ATAGCGAA,-0.042
23,GAGGCTTA,-0.156
24,CGCAGTCC,-0.113
25,CTTCCAAC,-0.136

row,Sequence,PBM E-score
1,CGGTAGGC,0.281
2,GTGGCTTA,-0.326
3,CGTAGCAA,-0.152
4,AGGGGAGA,-0.0487
5,AGTGTACA,-0.279
6,TTTTAAAA,-0.086
7,ACACATAA,-0.135
8,CCCCTTAA,-0.14
9,TCTCGGCA,0.271
10,TCACGCGA,-0.0375
11,AACGGGAG,0.131
12,GCACGCAC,-0.147
13,GCGGGACC,0.208
14,GAGCTTTA,-0.0716
15,TAGACGGA,0.2
16,AAGCTGCT,-0.15
17,ACACGTAG,-0.246
18,CCTCGAGA,-0.201
19,ACCTCACT,-0.11
20,ATTGATAA,-0.198
21,CCTAGTAG,-0.192
22,CCCGACGA,0.327
23,CCTGGTAA,-0.0491
24,CAAGACGG,-0.104
25,ACCGAATA,-0.00539

row,Sequence,PBM E-score
1,GTCCCGGA,0.343
2,ACCATCGT,-0.115
3,CAGATGGG,-0.172
4,CACCATGC,-0.0514
5,GAGTTTTA,0.0585
6,AGCACAAA,-0.0883
7,GCGGAATA,0.209
8,GCATGAAC,0.00981
9,CGGCGTTC,0.235
10,GCGGTAGA,0.0847
11,TATACAGA,-0.188
12,CGCATACA,0.0372
13,ACTCTTAT,-0.00053
14,TCAGGACA,-0.13
15,CGCGTCTC,0.0366
16,CATCGCAC,-0.0397
17,GACCGTTA,0.315
18,ACCCACTG,0.167
19,CAGTACCC,-0.0429
20,ACCTAAAA,-0.14
21,GGCGTTCA,-0.0502
22,TCCCGCAA,0.171
23,CGTGACGA,-0.00213
24,ACACTACA,-0.175
25,ACGGAGGC,0.177

row,Sequence,PBM E-score
1,GGAGTTGA,0.172
2,GATCACGC,0.109
3,TATTACCA,0.0161
4,CTCCTAGC,-0.231
5,ACGAATAG,-0.21
6,CCAGTAGG,-0.0402
7,ACTCTCCG,0.238
8,TAGTACGA,-0.0518
9,CCCCCCTC,-0.301
10,TATAGTAA,-0.00677
11,CGAGTCGC,0.129
12,AAGCGCAT,-0.126
13,ACCAATTA,-0.114
14,GACAACAC,0.00568
15,ACGAGAGA,-0.117
16,ATGATGGC,-0.0442
17,AGCTACAA,-0.0383
18,AGCGGCCA,0.0331
19,CGATCCCC,0.185
20,AAAATAGA,0.0408
21,ATTCAGTC,0.00025
22,AAATCACA,-0.121
23,GATGCTAC,-0.104
24,CCCGTGCC,0.111
25,AGTGCTGC,-0.171

row,Sequence,PBM E-score
1,CAGTTATC,0.0285
2,AAAATCTA,-0.0933
3,AAACTCTA,-0.0924
4,CAGGTTAA,-0.237
5,CTATGAGA,-0.248
6,GTTTTTAA,0.0619
7,AACCCATA,-0.0769
8,ACCCCTCG,-0.00649
9,GCTCCACC,0.0582
10,AGCTCAAC,-0.104
11,AGTGACTG,-0.246
12,ACCGTCGG,0.333
13,ATCGCCGG,0.445
14,AATGAAAT,-0.117
15,AACTCGGT,0.188
16,TCTCTGAA,-0.17
17,GCTCTACC,-0.126
18,AAAAAGAA,0.123
19,AGTATCCC,-0.104
20,AACATTGT,-0.0297
21,ACATGATG,-0.214
22,AATTACGG,0.217
23,ATAGAATC,0.0962
24,GTAAGAAA,-0.092
25,CATCCACC,0.00069

row,Sequence,PBM E-score
1,CCAGACCG,0.231
2,CATAACCA,-0.209
3,ATTAGTGA,-0.0161
4,GTGAGTCA,-0.321
5,AACGAGTC,-0.132
6,AGCATTGG,-0.151
7,AGCCTCGC,-0.14
8,AGCCCGGC,0.272
9,AAAGTACT,-0.0859
10,CCCACAGC,-0.286
11,ATAATTAG,0.157
12,ACCATGTG,-0.28
13,TCCCATCA,-0.217
14,AAAGCGTC,-0.156
15,GCGTGGAA,0.0279
16,GTACAAAC,-0.0539
17,GGCATGTA,-0.0091
18,TATGGTAA,0.0559
19,AACCCAGG,-0.164
20,AGTCGGTA,0.0714
21,ATTGCGAA,-0.0439
22,TGGAAGAA,-0.0848
23,ATCATGCC,-0.193
24,ACTCTACC,-0.00698
25,GGTGGTAA,0.223

row,Sequence,PBM E-score
1,CGCTGTCC,0.13
2,CAAAAGTG,-0.11
3,GAGACTCC,0.0169
4,AGGAGAGA,-0.255
5,GTCAAGTA,-0.298
6,AAAGAGTG,-0.157
7,CACTGCGC,-0.204
8,AGTAAAAG,0.00501
9,GTCCACTA,-0.102
10,CGAAAGTC,0.107
11,TATGGGCA,-0.108
12,CGCGTGTC,0.0935
13,GCGGCCCC,-0.0617
14,TGTTTAAA,-0.208
15,ATCTGGAC,0.033
16,AGGTCAGG,-0.188
17,GGATTTCA,0.283
18,ATTTTAGC,0.0771
19,ATTAGGTG,-0.0617
20,ACAGCTAA,-0.175
21,GAACAAGC,-0.132
22,ATCATTAG,-0.16
23,ATCATACA,-0.143
24,GAAAAGCC,0.258
25,ACCTGGTA,-0.275

row,Sequence,PBM E-score
1,CTTGGTCA,-0.0997
2,GCACGCTA,-0.101
3,CGCTCATC,-0.0346
4,GCGGAAGA,0.239
5,CAGATCGC,0.00561
6,AGCGGGAG,-0.0886
7,ATATCCCC,0.2
8,GGGTCACC,-0.218
9,AGGGCTAC,-0.228
10,AGCAGCTC,-0.13
11,ATGGGTCC,0.153
12,AGCAAACC,-0.0833
13,ACGGTCCC,0.0918
14,CGGTCACG,0.167
15,GCCGGCTA,0.229
16,ATCTAGTC,0.00704
17,AAAACTGT,-0.126
18,AAACTTAC,-0.0707
19,AGCTAAAC,-0.0747
